Screen size: about 370,000 compounds; about 150 (0.041%) were called active. The shares of active, inactive and inconclusive entries below differ from those in the screen. Calls follow the shape of the dose curve; as a rule, active = well fitted inhibition curve with a large enough effect; inconclusive = small, poorly fitted or top-dose-only effect; inactive = flat fitted curve, though single readings scatter. Potencies of inconclusive entries are left out as doubtful fits.
Target: Beta-lactamase (Escherichia coli (strain K12)) (UniProt P00811)
Chain of UniProt P00811 (P00811 whole entry, looked up): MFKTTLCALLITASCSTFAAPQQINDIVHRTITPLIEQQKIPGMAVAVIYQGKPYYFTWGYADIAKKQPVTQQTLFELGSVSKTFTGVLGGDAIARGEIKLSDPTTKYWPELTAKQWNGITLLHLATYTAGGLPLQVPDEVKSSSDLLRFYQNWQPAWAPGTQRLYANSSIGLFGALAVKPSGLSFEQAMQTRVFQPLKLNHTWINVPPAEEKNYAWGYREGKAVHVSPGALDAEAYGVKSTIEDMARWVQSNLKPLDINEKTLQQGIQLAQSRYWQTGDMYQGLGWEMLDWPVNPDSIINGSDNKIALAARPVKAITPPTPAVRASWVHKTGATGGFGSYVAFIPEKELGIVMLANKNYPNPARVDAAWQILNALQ
Assay: qHTS Inhibitors of AmpC Beta-Lactamase (assay with detergent); also: nearly all actives have a fitted effect of over 25% in size
Conditions: AmpC hydrolysis of nitrocefin, absorbance 480 nm, 0.01% Triton; series mostly up to 114 µM
Outline: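 AmpC (5.3 nM in the dispensed reagent) in 20 mM phosphate pH 7.0 with 0.01% (detergent screen) or 0.0001% Triton X-100 was preincubated with compounds for 15 min at room temperature. Nitrocefin was then added from an 800 uM solution, and hydrolysis was followed at 480 nm.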
Potency is read from the fitted curve at half-maximal effect; tags tell the direction and shape of the fitted curve.

| Compound | Potency |
| --- | --- |
| CCOc1ccccc1OCC(=O)Nc1ccc(N2CCOCC2)cc1N1CCOCC1 | inconclusive [inhibitor, full curve, poor fit] |
| CCOc1ccc(CNC(=O)Cn2c(=O)c3cccn3c3cccnc32)cc1 | inactive |
| Oc1ccc(N2CCN(c3ncnc4sc5c(c34)CCC5)CC2)cc1 | inconclusive [inhibitor, single point] |
| CCc1cc2c(SCC(=O)N3CC(=O)Nc4ccccc43)ncnc2s1 | inactive |
| CC(NC(=O)C(c1ccccc1)c1ccccc1)C(=O)O (stereo unspecified) | inconclusive [inhibitor, full curve, poor fit] |
| O=C(COc1ccccc1Cl)NC(=S)N1CCc2ccccc21 | inactive |
| S=C(Nc1ccccn1)c1ccccn1 | inconclusive [inhibitor, full curve, poor fit] |
| COC(=O)[C@H](Cc1c[nH]c2ccccc12)NC(=O)NCc1ccc(OC)cc1 | inactive |
| CCOc1ccc(C(=O)/C=C/Nc2ccc(S(=O)(=O)N=C(N)N)cc2)cc1 | inactive |
| Cc1csc(=O)n1CCC(=O)OCC(=O)Nc1cccc(C#N)c1 | inconclusive [inhibitor, full curve, poor fit] |
| CN1C2CCC1C(COC(=O)c1ccccc1)C(O)C2 (stereo unspecified) | inconclusive [inhibitor, single point] |
| CCCn1c(C(C)Nc2nc(-c3ccc(Cl)c([N+](=O)[O-])c3)cs2)nc2ccccc21 (stereo unspecified) | inconclusive [inhibitor, full curve, poor fit] |
| COCCn1c(SCC(=O)Nc2cc(C)on2)nnc1-c1ccccc1 | inconclusive [inhibitor, full curve, poor fit] |
| CCn1c(SCC(=O)NCc2ccccc2)nnc1-c1c[nH]c2ccccc12 | inconclusive [inhibitor, full curve, poor fit] |
| CCCN(CCC)C(=O)CC(c1ccc(F)cc1)c1ccco1 (stereo unspecified) | inactive |
| C/C(CCC(=O)O)=N/Nc1ccc([N+](=O)[O-])cc1[N+](=O)[O-] | inconclusive [inhibitor, single point] |
| Cn1c(=NC(=O)C2=NNC(=O)CC2)sc2ccccc21 | inconclusive [inhibitor, full curve, poor fit] |
| CCn1cc(/C=N\NC(=O)c2cc(-c3ccccc3OC)nc3ccccc23)c(C)n1 | inconclusive [inhibitor, partial curve] |
| CCCNCC1C(Oc2ccc(Cl)cc2Cl)C(=O)N1c1cccc(C)c1C (stereo unspecified) | inconclusive [inhibitor, full curve, poor fit] |
| C=CCn1c(SCC(=O)O)nnc1-c1ccccc1 | inconclusive [inhibitor, full curve, poor fit] |
| Cc1ccc(NC(=O)CNC(=O)c2cccs2)c(O)c1 | inconclusive [inhibitor, full curve, poor fit] |
| N#Cc1ccc(N2CCN(c3ccc(F)cc3)CC2)cc1 | inconclusive [inhibitor, full curve, poor fit] |

| Compound | Potency |
| --- | --- |
| COc1ccc(NC(=O)[C@H](Cc2ccccc2)N2Cc3ccccc3C2=O)cc1OC | inconclusive [inhibitor, single point] |
| COc1ccccc1C(=O)NC(CCSC)C(=O)N1CCC(Cc2ccccc2)CC1 (stereo unspecified) | inconclusive [inhibitor, partial curve, poor fit] |
| Cc1nnc(NC(=O)c2ccc(S(=O)(=O)N3CCc4ccccc4C3)cc2)o1 | inconclusive [inhibitor, full curve, poor fit] |
| CN(C)c1cc[nH]c(=O)c1C#N | inconclusive [inhibitor, single point] |
| Cn1cccc1CC(=O)NNC(=S)NC(=O)c1ccccc1Br | inconclusive [inhibitor, full curve] |
| CCCCN(C(=O)C1CCC1)c1c(N)n(CCC)c(=O)[nH]c1=O | inactive |
| CN1CCN(C(=O)CN(C2CCCCC2)S(=O)(=O)c2ccc(Br)cc2)CC1 | inconclusive [inhibitor, partial curve, poor fit] |
| Cc1ccc(-c2ccc(=O)[nH]n2)cc1 | inconclusive [inhibitor, single point] |
| COc1ccc(N2CCN(C(=O)CSc3ncccc3-c3nc4ccccc4[nH]3)CC2)cc1 | inconclusive [inhibitor, partial curve, poor fit] |
| Cc1ccc(Cn2c(=N)c(C(=O)NCC3CCCO3)cc3c(=O)n4ccccc4nc32)cc1 (stereo unspecified) | inconclusive [inhibitor, full curve, poor fit] |
| COc1ccc(NC(=O)NN2CCN(C)CC2)cc1 | inconclusive [inhibitor, full curve, poor fit] |
| Cc1ccc(Sc2ccncc2S(N)(=O)=O)cc1 | inconclusive [inhibitor, partial curve, poor fit] |
| Cc1ccc2nc(-c3ccc(NS(C)(=O)=O)cc3)cc(-c3ccccc3)c2c1 | inconclusive [inhibitor, full curve, poor fit] |
| CCCN(CC(=O)Nc1ccccc1C)C(=O)c1ccc(N2CCCCC2)c([N+](=O)[O-])c1 | inconclusive [inhibitor, full curve, poor fit] |
| O=C(c1cccc(S(=O)(=O)N2CCCC2)c1)c1nnc(-c2ccncc2)o1 | inconclusive [inhibitor, partial curve, poor fit] |
| COC(=O)NNC(=O)C(C)Oc1ccc(Cl)cc1Cl (stereo unspecified) | inactive |
| CCOC(=O)c1cnc2c(C(F)(F)F)cccc2c1N1CCOCC1 | inconclusive [inhibitor, full curve, poor fit] |
| c1ccc2c(c1)[nH]c1c3ccccc3sc21 | inconclusive [inhibitor, single point] |
| CC(=O)Nc1ccc(OCCOc2ccccc2C(C)=O)cc1 | inconclusive [inhibitor, single point] |
| Cc1ccc(-c2noc(CNC(=O)c3ccc(C)c(Cl)c3)n2)cc1 | inactive |
| C=CCn1c(SC(C)C(=O)NCc2ccc3c(c2)OCO3)nnc1C1CCCCC1 (stereo unspecified) | inconclusive [inhibitor, full curve, poor fit] |
| NC(=O)N1c2ccccc2C=Cc2ccccc21 | inactive |

| Compound | Potency |
| --- | --- |
| Cc1cccc(-n2ncc3c(NCCc4ccc(S(N)(=O)=O)cc4)ncnc32)c1 | inconclusive [inhibitor, full curve] |
| CCCCOc1ccc(-c2nnn(C(C)(C)C(=O)OC)n2)cc1 | inconclusive [inhibitor, partial curve, poor fit] |
| O=C(NNC(=O)C1CCCCC1)c1ccco1 | inactive |
| COC(=O)C1=C(C)N(CCc2cc(OC)c(OC)c(OC)c2)C(=O)N[C@H]1c1ccc(Br)cc1 | inconclusive [inhibitor, full curve, poor fit] |
| CCc1ccc(OCC(=O)N(Cc2ccc(C(C)C)cc2)C2CCS(=O)(=O)C2)cc1 (stereo unspecified) | inactive |
| COc1ccc(-c2cnc3c(c2)CCC3(C#N)C#N)cc1 | inconclusive [inhibitor, single point] |
| O=C(OCC1CC(c2ccccc2)=NO1)c1ccco1 (stereo unspecified) | inactive |
| O=C(O)C1=C[C@@H](c2ccccc2)C[C@@H](OCc2ccc(CO)cc2)O1 | inactive |
| COc1ccc(CNC(=O)CCS(=O)(=O)c2cccc3nonc23)cc1 | inconclusive [inhibitor, full curve] |
| O=C(Nc1cccc(F)c1)C1CCN(C(=O)c2ccc(Br)cc2)CC1 | inconclusive [inhibitor, single point] |
| Cc1cccnc1NC(=O)CN1C(=O)COc2ccc(Cl)cc21 | inconclusive [inhibitor, full curve] |
| CCc1cccc(NC(=O)C2CCN(S(=O)(=O)c3ccc4c(c3)CC(C)N4C(C)=O)CC2)c1 (stereo unspecified) | inconclusive [inhibitor, full curve, poor fit] |
| Cc1c(C(=O)N/N=C/c2ccccc2)[nH]c2ccc(Cl)cc12 | inconclusive [inhibitor, single point] |
| Cc1cc(C)cc(NC(=O)C2C3C=CC4(O3)C2C(=O)N(CCCN2CCCCC2)C4C(=O)NC2CCCCC2)c1 (stereo unspecified) | inconclusive [inhibitor, full curve, poor fit] |
| Cc1c(/C=N\NC(=O)c2ccc([N+](=O)[O-])cc2)cnn1C | inconclusive [inhibitor, partial curve] |
| CCc1ccccc1NC(=O)CN(C)C(=O)CSc1nnc(Nc2cccc(C)c2C)s1 | inconclusive [inhibitor, full curve, poor fit] |
| O=C(O)c1cc(-c2ccncc2)nc2ccc(S(=O)(=O)N3CCOCC3)cc12 | inconclusive [inhibitor, full curve, poor fit] |
| CSc1ccccc1-n1nnnc1SCC(=O)Nc1cc(C)ccc1C | inconclusive [inhibitor, single point] |
| Cc1ccc(C(=O)Nc2cc3[nH]c(=O)oc3cc2C)cc1 | inactive |
| COc1ccc(N2CCOCC2)c(NC(=O)c2cccc3ccccc23)c1 | inconclusive [inhibitor, full curve] |
| CN1C(=O)/C(=C/c2ccc(OCc3ccc(F)cc3)cc2)NC1=S | inactive |
| N#Cc1ccccc1CSc1nnc(-c2ccc(Br)cc2)o1 | inactive |
